The values below come from the supplement of paper PMC9446081.

About 220 (0.56%) of roughly 39,000 compounds showed activity. The list shows a part of the results.
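Further: static incubation at 37 °C against the wild-type strain, values averaged over two biological replicates.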

The assay deals with Escherichia coli K-12 BW25113. Description: relative growth (OD600 normalised to plate interquartile mean) (fraction); higher = less growth inhibition, active = 0.2 or less. The settings on record: 50 µM; LB; incubation time: overnight (16-24 h).
As to `C[C@@H]1CCCCO[C@H](CN(C)Cc2ccc3c(c2)OCO3)[C@H](C)CN([C@H](C)CO)C(=O)c2cc(NC(=O)Nc3ccc4c(c3)OCO4)ccc2O1`, the relative growth was inactive: 0.961.

For `O=C1CCOCC1`, the relative growth is inactive: 1.01.

As to `O=C(N[C@@H](c1ccc(-c2ccccc2)cc1)c1cnccn1)C1CCN(CCCOc2ccccc2)CC1`, the relative growth is inactive: 0.979.

Consider `CO[C@H]1CN(C)C(=O)c2ccc(NC(=O)C3CCOCC3)cc2OC[C@@H](C)N(Cc2cccnc2)C[C@@H]1C`, for which the relative growth was inactive: 0.993.

Take `C[C@@H]1CN([C@H](C)CO)C(=O)c2ccccc2-c2ccccc2CO[C@H]1CN(C)C(=O)Nc1ccc(F)cc1`: the relative growth is inactive: 0.974.

Turning to `C=CC[C@@H](CC(=O)N(CCO)Cc1ccccc1)C(=O)NC[C@H](OC(=O)[C@@H](CC=C)Cc1ccc(F)cc1)c1ccccc1`, the relative growth was inactive: 1.07.

Turning to `OC[C@H]1O[C@@H](n2ncc3c(O)ncnc32)[C@H](O)[C@@H]1O`, the relative growth is inactive: 0.996.

Turning to `COc1ccccc1CNC(=O)C[C@H]1C[C@H]2c3cc(NC(=O)C4CCOCC4)ccc3O[C@H]2[C@H](CO)O1`, the relative growth is inactive: 0.986.

`C[C@@H]1CN([C@H](C)CO)C(=O)Cc2cc(NC(=O)Nc3cccc4ccccc34)ccc2O[C@@H]1CN(C)Cc1ccc(-c2ccccc2)cc1`: the relative growth is inactive: 1.01.

Take `COc1ccc(NC(=O)Nc2ccc3c(c2)C(=O)N([C@@H](C)CO)C[C@@H](C)[C@H](CN(C)C(=O)Nc2cccc4ccccc24)O3)cc1`: the relative growth was inactive: 1.04.

Consider `C[C@@H]1CN([C@@H](C)CO)C(=O)Cc2cc(NC(=O)Cc3ccccc3)ccc2O[C@H]1CN(C)Cc1ccc(Oc2ccccc2)cc1`, for which the relative growth was inactive: 0.99.

As to `COc1ccc(NC(=O)N(C)C[C@H]2OCCCC[C@H](C)Oc3ccc(NC(=O)CCC(F)(F)F)cc3C(=O)N([C@@H](C)CO)C[C@H]2C)cc1`, the relative growth is inactive: 0.989.

In the case of `C[C@@H]1CN([C@@H](C)CO)S(=O)(=O)c2ccc(C#CCN(C)C)cc2O[C@H]1CN(C)C(=O)c1ccccc1F`, the relative growth was inactive: 0.915.

Regarding `COCC#Cc1ccc2c(c1)O[C@@H](CN(C)C(=O)CN(C)C)[C@@H](C)CN([C@@H](C)CO)S2(=O)=O`, the relative growth was inactive: 0.985.

Take `COc1ccc(NC(=O)Nc2ccc3c(c2)C(=O)N([C@@H](C)CO)C[C@@H](C)[C@H](CN(C)Cc2ccccc2)OCCCC[C@@H](C)O3)cc1`: the relative growth is inactive: 1.03.

For `CN1C(=O)c2cc(NC(=O)Nc3ccccc3F)ccc2OC[C@@H]2O[C@@H](CC(=O)NCc3ccc(-c4ccccc4)cc3)CC[C@H]21`, the relative growth is inactive: 0.988.

With `C[C@H]1CN([C@@H](C)CO)C(=O)c2ccccc2-c2ccccc2CO[C@@H]1CN(C)C(=O)Nc1ccccc1C(F)(F)F`, the relative growth is inactive: 0.977.
